Laboratory results reported in the supplement of paper PMC3334620.
The full ranking holds about 33,000 sequences; the median of “E-score (-0.5 to 0.5)” is about -0.013, and the highest 2% start at about 0.3. This is one part of the list.

target: T1, Msn1 (UniProt P22148); assay: PBM E-score (8-mer binding enrichment) (E-score (-0.5 to 0.5)); higher = stronger / more preferred TF binding; most listed sequences are background and not binding sites; details: protein concentration: 200 nM; construct: GST-full length
T1 sequence: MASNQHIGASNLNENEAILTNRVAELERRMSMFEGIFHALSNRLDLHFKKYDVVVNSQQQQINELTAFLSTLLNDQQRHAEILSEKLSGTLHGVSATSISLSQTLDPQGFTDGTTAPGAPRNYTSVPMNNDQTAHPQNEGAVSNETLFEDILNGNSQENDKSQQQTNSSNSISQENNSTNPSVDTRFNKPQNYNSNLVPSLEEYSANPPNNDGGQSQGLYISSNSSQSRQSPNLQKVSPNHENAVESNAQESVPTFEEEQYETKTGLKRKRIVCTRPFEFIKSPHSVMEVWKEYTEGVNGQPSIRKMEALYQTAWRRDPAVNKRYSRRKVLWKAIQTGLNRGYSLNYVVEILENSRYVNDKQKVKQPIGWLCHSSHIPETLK
How it was run: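 PURExpress in vitro transcription/translation supplied GST-tagged yeast transcription factors, either full-length or DNA-binding domain. Applied at about 100-200 nM to universal all-10-mer Agilent arrays double-stranded by primer extension, the bound protein was detected with fluorescent anti-GST. E-scores, modified Wilcoxon-Mann-Whitney statistics, were given by the Universal PBM Analysis Suite to ungapped eight-base words pooled with their reverse complements after masliner normalisation.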

Sequence	PBM E-score
AAGTATCC	-0.0327
CGGGGGTC	-0.376
AAATACAA	0.22
AGACCACT	-0.101
AATAAGTC	0.274
GCCAGCGA	-0.21
AACGGTTA	-0.14
AACTTATT	0.0956
ACACTAGC	0.0176
CAATGAAG	0.115
AATAGTAT	0.187
CTATGTTC	0.103
ATGGGGCC	-0.377
AACAGAGA	-0.0334
CCATCAAC	0.105
AAGTAGTA	0.0342
ATACTCCC	-0.0635
CGCGAATC	0.06
ACCAAGAA	0.16
TAGCAGAA	0.0663
ATTTAGCA	-0.102
AGGATGAG	-0.236
TTCGAAAA	0.264
AGGGAGAC	-0.0522
CCTCTGGC	-0.147

Sequence	PBM E-score
ACGTGGAA	0.113
AGCTTGTG	-0.0474
GTTGCCCA	0.0903
GTGCTACA	-0.173
GGATCCCC	-0.27
CATCTGCA	-0.0969
CTTGGCCC	-0.373
AGAATCAA	0.109
AACGGAAG	0.0374
CCGTTCAA	0.0479
GTAATCCA	-0.0299
CACGCTAG	-0.0343
ACTCCATG	-0.154
CCGAAACC	-0.0668
AACTCATC	0.0101
GGGCTAAC	-0.272
CGGCGTGC	-0.17
GCAGAGCC	-0.149
CTATTGCC	-0.248
AACACTGA	-0.0626
AAATAAGT	0.237
ATAGCAGC	0.0248
ACCCTAGC	-0.155
ATACATAC	-0.0367
ACCACTCG	-0.0126

Sequence	PBM E-score
CCCTCCTC	-0.419
GTAGTGGA	0.224
AGTCTTTG	0.033
CTTTGACC	0.0298
TCTTTCAA	0.0815
GGCCTTGA	-0.1
GCATCGGA	0.092
CGGATTCA	-0.0351
ACGTACCA	-0.0307
AATCTCTC	-0.252
TAACAGCA	0.0293
ACGGTTAG	-0.16
GCTGAGGA	-0.0168
AATCCGAG	-0.0555
AGGAATGC	-0.195
AACAGCAC	0.106
CTAAGCAA	-0.0827
GTTTAGTA	0.261
AAGCTCTG	-0.123
ACGAATTG	0.138
GTTTTGCA	0.0182
AGTTTCTG	-0.0795
GAGCTTCA	0.0163
AGCTCTCA	-0.125
CGAACGAA	0.0449

Sequence	PBM E-score
CCCAGTGC	-0.208
CAAGTTTA	0.0923
GCGGTTAC	-0.0579
GATCGAAC	-0.158
TAGGTCAA	0.115
CGTAATAG	0.0163
ATAGTCTA	-0.0808
TCCGTCCA	0.221
CCTAATTA	-0.0274
CCCCCATC	-0.282
AATCCGGC	-0.115
GTCCTTAA	0.433
CTGCATCC	-0.0326
ACAAACAA	0.277
ATATATTC	0.163
CCACCTGC	-0.169
CAGTCATC	-0.227
CGTACCGA	0.0482
CCTTTCTC	-0.257
GCGGGTAA	-0.164
AGCATTAT	0.00573
CATAGAGG	-0.0712
GGCCGTAC	-0.0476
GGGTATTA	-0.0401
ACGAGGTC	0.0215

Sequence	PBM E-score
ACCCGAAA	-0.0297
AATTAGGC	0.154
CGTGAACA	0.0777
ATATGTGC	-0.00808
CTCATTTC	0.0388
ACTGGTAC	0.034
ATTTGCCC	0.0584
CGTCATGA	0.0599
ATACCGAG	-0.116
TGGGCCCA	-0.128
TAACCAAA	0.0404
AAAAGGCT	-0.0222
CCGACATA	0.215
ACTAGGTA	-0.0065
TGACTAAA	0.0539
CTTGATGA	0.101
CTAAATAC	0.0783
CGTCGAAG	-0.0449
ACCTGTCG	0.00191
AGTGGTAA	0.0594
CGTCCATC	0.0943
CGAAGATC	-0.0505
ACCGTCGA	-0.00377
ATTGAGAA	0.163
GGCGTAAA	-0.0353

Sequence	PBM E-score
AATCCGTC	0.148
ACCCAAGC	-0.184
GAACGGGA	-0.0202
CGAAGAAG	0.0424
AGAAATCC	-0.0711
AGGGATTA	-0.0581
CCTGAGCA	0.0235
ACTACCAC	-0.137
AAACTCTT	-0.108
CTAGTGCC	-0.224
GACAAGGA	0.311
GTGGCGGA	-0.0759
CCTTGGAA	-0.156
AGGATACA	0.0732
ACAAGGCA	0.0594
CAGCCACG	-0.0651
AGTCTCAA	-0.0719
GAGTGGCA	-0.0971
ACTACCTG	-0.0515
GTACACAC	0.256
GAGCTCCA	-0.108
ACAAGTGT	0.181
ATAATTAA	0.234
AGCATCAC	-0.178
ACATGGAG	0.0174

Sequence	PBM E-score
GATCGGTA	0.0186
AAGACATT	0.414
GCACCGCC	-0.293
AGCAGGGC	-0.157
ACGATCTG	-0.105
CGCCCTGA	-0.118
CTGGTATC	-0.0417
GCATGAAA	0.0659
CGCCGATC	0.0102
TGGGACAA	0.471
GCCAAAAA	0.0349
ATAAACAC	0.0945
ACGAACAG	0.0486
AAGAACCG	0.101
CATCTCTA	0.0343
ACATTCCT	0.054
AGCCGAAC	-0.0919
CCCCCAAG	-0.172
CCAGCACG	-0.014
GCGGTTCA	-0.0339
GCAACCTA	-0.0979
GACCGCAA	0.0479
CTCAGGAC	0.243
ATGCACGA	-0.00947
CACAAACC	-0.135

Sequence	PBM E-score
AACTACAT	-0.0801
CCTCCAGG	-0.259
ACTTCTAT	0.0685
ATTTGCAG	0.0696
GCGTTCCA	-0.066
CCGCCCAA	-0.0952
AGGCGAAG	-0.158
CAGACGCC	-0.175
AGCGTGAT	0.0556
GTACGTCA	-0.039
CTACCTTA	-0.228
TACAGGAA	0.0582
GAGTTCTA	-0.0786
ATGATTCG	0.00766
CCTTTCAC	-0.0327
ATTGGCCG	-0.0555
CCTTGGCC	-0.195
CAACGCTC	0.00214
CAGAGGAG	-0.212
GCGTTTCC	-0.0276
AGTCGTAG	-0.0802
GCATATTA	0.0109
AGTACTTC	0.0929
GCCCTGTA	0.00768
GTTTTCTA	0.164

Sequence	PBM E-score
ATAATCCG	0.0113
GCAAAAAA	0.21
ATTCCGGA	0.313
GAAAAAGA	0.12
GCGTTACA	-0.0849
GCAGCAGA	-0.0193
ATCTGTGG	-0.184
GCGCCACC	-0.217
GCGCGGGA	-0.119
ATTTCATC	0.206
TATAATGA	0.158
CAGGAATC	0.188
CGTATCCC	-0.0898
AGAACCAG	-0.053
CGCACCAG	-0.104
ATTAAGTG	0.142
GGTTCAAA	0.0338
CAAAGTTC	-0.0221
CTTATTAA	0.0849
AGTATTCG	-0.0863
CAGGGCAG	-0.154
CATTGTGC	0.0753
CGGCGGCC	-0.198
TACTAACA	0.216
GCCCATCC	-0.28

Sequence	PBM E-score
AATCGGCT	0.0696
ACACCGCG	-0.0655
CCTTATCA	0.115
GAACCGGC	-0.08
CCTGTGAG	-0.143
ACATTCTC	0.233
ACCCAGAC	0.0146
CAGGAGAA	-0.0516
AATCCGTG	-0.135
CGTGCGGA	-0.0311
CTAGGTTC	-0.0861
GGTACACA	0.267
CACAGATG	-0.0665
AGTAGACT	-0.0196
GACGTTCC	-0.0725
GAATACTA	0.105
ATAGGTTA	-0.0136
GACGAGGC	-0.0771
TCTTCCAA	0.0213
TAGCCACA	0.12
AACACCTT	0.0109
AAACATCG	-0.12
CAGCATAA	0.0378
CATAAAAA	0.181
CCTAAATC	0.0761

Sequence	PBM E-score
GGATTCAA	-0.0688
CGGTCCTA	-0.185
TGGGGAAA	-0.0201
ACATTGCT	0.234
CTTGTTGA	0.0213
AATTCTAA	0.0582
CAATAATG	-0.0285
GAAGACAA	0.36
TGAAGAAA	0.104
TCCTATAA	0.0275
GCCTAGAA	-0.0236
CTATCCGA	0.0185
CCACATCC	-0.178
CAGACTGG	-0.0288
ACATGTTG	0.235
CCAAATCC	-0.135
GCGAGGGA	-0.159
ACATTTCC	0.329
GATTCAGC	-0.127
GCCACGCC	-0.281
ATAGCGTC	-0.00515
CTACAGGC	-0.112
CACTTCGA	0.0238
CAAAAATA	0.203
GGTTGTAC	-0.069

Sequence	PBM E-score
ATGAACGC	0.037
GTCGAAAC	-0.0791
ACTGGCTC	-0.193
AATCAACG	0.032
ACGTTCGC	-0.146
TATGGACA	0.476
AGAACGGC	0.134
CCATGAAC	0.0774
ATGTTAGC	-0.103
AGTTGCAC	-0.0526
TAGTTAGA	-0.0425
ACTCAATC	0.017
CAGGTGCG	-0.121
AGTCGTGC	-0.132
AGGTCCCC	-0.299
GCGACCAC	-0.08
AGAACCGA	0.119
CACATCTA	0.0157
GTACCCAA	0.0345
CAGAACCC	-0.195
CTGCCCTC	-0.329
GACTAGTC	0.167
AGTATACC	-0.0263
AGACCGGC	-0.171
ATACATTA	0.237

Sequence	PBM E-score
AGGCGACA	-0.106
GATATGGA	0.205
AGGTTCGG	-0.171
ATCCGTGG	-0.0752
AATCCGAA	-0.0636
GCATTTCA	0.0826
CAGGGAAA	-0.0891
AAGCTGGC	-0.0659
CTCGCTGA	0.0181
GAACCGTA	-0.00356
CCGCAGCG	-0.133
GCGTAAAC	-0.017
ATAAAACG	0.12
ACTTTGGC	-0.0739
ACTATCGA	-0.0639
AGGGGTGA	-0.251
CAAACGGG	0.0991
CCTCACAC	-0.187
ACTACTGC	-0.105
GTTCCTAA	-0.0399
GCATGAGA	0.0319
CCAACTCA	0.0263
ACATTGAC	0.112
CGAGCTCC	-0.0327
GGCACAAC	0.0188

Sequence	PBM E-score
CAAAGGTA	-0.0158
TGTTCCAA	0.0356
AGACGAAC	0.0373
ACCAGGTC	0.0327
CTCTACAC	-0.231
ATCACACC	-0.0954
CATGTGGA	0.199
GGGCTCAC	-0.317
CTTGATCA	0.138
CAGACCGA	-0.065
ACGAATCT	0.0133
GCCACAAA	0.133
CGATTCAA	0.0184
AGGATATC	-0.119
AGTGTCCG	0.179
ATAGTCAC	-0.00405
GCTCTGAA	-0.119
ATCCGGGA	-0.0993
ACGGTAAC	-0.0431
